# Laboratory results from PubChem BioAssay (NCATS).
# “And” between values parts separate entries of the source, which are not always exact repeats. Equal values may be shown once. The shares of active, inactive and inconclusive entries below differ from those in the screen. For some of these results: Where the call is inconclusive, the potency comes from a doubtful curve fit. The source made the active and inactive calls. Calls follow the shape of the dose curve; as a rule, active = well fitted curve in the direction sought with a large enough effect; inconclusive = small, poorly fitted or top-dose-only effect, or another doubt; inactive = no such curve, though single readings can be large; an effect the other way counts as inactive or inconclusive.
# Key:
# [1] = Viability qHTS for spleen associated tyrosine kinase inhibitor (SYKi) naive MV4-11 cells (AID 1963823); conditions: MV4-11 AML viability, CellTiter-Glo luminescence, 72 h; viability (% of control): at 45 µM (top of the series); also: nearly all actives have a fitted effect of over 40% in size; also: potency is read from the fitted curve at half-maximal effect
# Method in brief: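 Cells: MV4-11, SYK inhibitor naive, 500 per well. Treatment: library compounds, 72 hr, 37 C, 5% CO2. Read-out: CellTiter-Glo luminescence after 10 min RT.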
# [2] = Quantitative highthroughput screen to assess conditional lethalithy of NOMO1 cells grown in RPMI1640 with untreated serum (RPMI+s) (AID 1963876); conditions: NOMO1 AML cells in RPMI+serum, CellTiter-Glo viability, 48 h; viability: at 45.8 µM (top of the series); also: nearly all actives have a fitted effect of over 35% in size; also: potency is read from the fitted curve at half-maximal effect;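 as to Viability: 100% = DMSO wells and 0% = empty wells without cells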
# Method in brief: (§1)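 Each medium arm—HPLM with 10% dialyzed FBS, or RPMI1640 with 5 mM glucose and 10% untreated or dialyzed FBS—was screened against an 11-point, 3-fold compound titration for 48 h at 37 °C, with CellTiter-Glo luminescence as endpoint.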
# [3] = Quantitative highthroughput screen to assess conditional lethalithy of NOMO1 cells grown in RPMI1640 with dialyzed fetal bovine serum (RPMI+ds) (AID 1963877); also: potency is read from the fitted curve at half-maximal effect; nearly all actives have a fitted effect of over 30% in size
# Method in brief: as §1
# [4] = Quantitative highthroughput screen to assess conditional lethalithy of NOMO1 cells grown in Human Plasma-Like Medium with dialyzed fetal bovine serum (HPLM+ds) (AID 1963878); conditions: NOMO1 AML cells in HPLM+ds, CellTiter-Glo viability, 48 h; viability: at 45.8 µM (top of the series); also: potency is read from the fitted curve at half-maximal effect; nearly all actives have a fitted effect of over 35% in size
# Method in brief: as §1
# [5] = Quantitative highthroughput screen to assess conditional lethalithy of P12 Ichikawa cells grown in Human Plasma-Like Medium with dialyzed fetal bovine serum (HPLM+ds) (AID 1963879); conditions: Potency: viability; also: potency is read from the fitted curve at half-maximal effect; nearly all actives have a fitted effect of over 35% in size
# Method in brief: as §1
# [6] = Quantitative highthroughput screen to assess conditional lethalithy of P12 Ichikawa cells grown in RPMI1640 with dialyzed fetal bovine serum (RPMI+ds) (AID 1963880); conditions: Potency: P12-Ichikawa viability; also: potency is read from the fitted curve at half-maximal effect; nearly all actives have a fitted effect of over 35% in size
# Method in brief: as §1
# [7] = Quantitative highthroughput screen to assess conditional lethalithy of P12 Ichikawa cells grown in RPMI1640 with untreated serum (RPMI+s) (AID 1963881); conditions: Potency: viability
# Method in brief: as §1
# [8] = Cellular viability qHTS for adrenocortical cancer (ACC) cell line SW-13 (AID 1963989); conditions: SW-13 ACC cells viability, CellTiter-Glo, 48 h; activity (max response): stronger effect = lower value; also: nearly all actives have a fitted effect of over 65% in size; also: potency is read from the fitted curve at half-maximal effect;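 as to activity (max response): cells grown in serum-free medium with ITS supplement; % is scaled to controls: 0 for no effect and ±100 for the full control effect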
# Method in brief: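 48 h treatment, SW-13 in ITS/DMEM serum-free; doses up to 46 uM; readout CellTiter-Glo luminescence; curve fit four-parameter logistic.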
# [9] = Cellular viability qHTS for adrenocortical cancer (ACC) cell line NCI-H295R (AID 1963990); conditions: CellTiter-Glo ATP luminescence, 48 h; activity change, negative = viability loss: at 46.1 µM (top of the series); also: potency is read from the fitted curve at half-maximal effect; nearly all actives have a fitted effect of over 60% in size
# Method in brief: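 Compound titrations (up to 46 uM final) are applied to NCI-H295R cultures for 48 h at 37C. Viable cell number is estimated by CellTiter-Glo signal, normalised to DMSO and doxorubicin controls.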
# [10] = Quantitative highthroughput screen to assess conditional lethalithy of SEM cells grown in Human Plasma-Like Medium with dialyzed fetal bovine serum (HPLM+ds) (AID 1963882); also: nearly all actives have a fitted effect of over 35% in size; also: potency is read from the fitted curve at half-maximal effect
# Method in brief: as §1
# [11] = Quantitative highthroughput screen to assess conditional lethalithy of SEM cells grown in RPMI1640 with dialyzed fetal bovine serum (RPMI+ds) (AID 1963884); conditions: SEM B-ALL cells, RPMI+dialyzed FBS, CellTiter-Glo viability, 48 h; viability: at 45.8 µM (top of the series)
# Method in brief: as §1
# [12] = Viability qHTS for spleen associated tyrosine kinase inhibitor (SYKi) drug resistant MV4-11 cells (AID 1963824); also: nearly all actives have a fitted effect of over 35% in size
# Method in brief: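 CellTiter-Glo luminescence, read 10 min after reagent addition, reports viability after a 72 hr compound exposure. Cells are an MV4-11 line made resistant to SYK inhibition, seeded at 500 per well onto compound-containing plates.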
# [13] = Quantitative highthroughput screen to assess conditional lethalithy of SEM cells grown in RPMI1640 with unreated serum (RPMI+s) (AID 1963883); conditions: SEM B-ALL cells, CellTiter-Glo viability, 48 h; viability: at 45.8 µM (top of the series); also: nearly all actives have a fitted effect of over 35% in size; also: potency is read from the fitted curve at half-maximal effect;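 as to Viability: 100% = DMSO wells and 0% = empty wells without cells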
# Method in brief: as §1
# Tags tell the direction and shape of the fitted curve.
SMILES,Potency [1],Potency [2],Potency [3],Potency [4],Potency [5],Potency [6],Potency [7],Potency [8],Potency [9],Potency [10],Potency [11],Potency [12],Potency [13],activity (max response) [8]
CCc1cccc(CC)c1NC(=O)N1Cc2[nH]nc(NC(=O)c3ccc(N4CCN(C)CC4)cc3)c2C1,active: 1.46 µM and active: 1.66 µM,"inconclusive: 0.935 µM [cytotoxic, full curve]","inconclusive: 0.743 µM [cytotoxic, full curve]","inconclusive: 1.05 µM [cytotoxic, full curve]",active: 1.87 µM,"inconclusive: 1.32 µM [cytotoxic, full curve]","inconclusive: 1.48 µM [cytotoxic, full curve]","inconclusive: 15.8 µM [cytotoxic, partial curve]","inconclusive: 17.8 µM [cytotoxic, partial curve, poor fit]",,,,,
Cn1cncc1[C@@](N)(c1ccc(Cl)cc1)c1ccc2c(c1)c(-c1cccc(Cl)c1)cc(=O)n2C,"inconclusive: 2950 nM [cytotoxic, partial curve]","inconclusive: 33.2 µM [cytotoxic, single point]","inconclusive: 16.6 µM [cytotoxic, partial curve]","inconclusive: 9.35 µM [cytotoxic, partial curve, poor fit]","inconclusive: 6.62 µM [cytotoxic, partial curve]","inconclusive: 6.62 µM [cytotoxic, partial curve]","inconclusive: 3.72 µM [cytotoxic, partial curve]",,,"inconclusive: 0.0418 µM [cytotoxic, full curve]",active: 3.72 µM,,,
CCN(CC)CCOC(=O)C1(C2CCCCC2)CCCCC1,inactive,,,,,,,,"inconclusive: 29.1 µM [cytotoxic, single point]",,,inactive,,
CC(C)C[C@H](NC(=O)CNC(=O)c1cc(Cl)ccc1Cl)B(O)O,active: 93.4 nM,"inconclusive: 0.372 µM [cytotoxic, full curve, poor fit]",active: 0.418 µM,"inconclusive: 0.332 µM [cytotoxic, full curve, poor fit]","inconclusive: 0.264 µM [cytotoxic, full curve, poor fit]","inconclusive: 0.296 µM [cytotoxic, full curve, poor fit]","inconclusive: 0.264 µM [cytotoxic, full curve, poor fit]",active: 2 µM,active: 0.398 µM,"inconclusive: 0.0148 µM [cytotoxic, full curve, poor fit]","inconclusive: 0.0148 µM [cytotoxic, full curve, poor fit]",,"inconclusive: 0.0148 µM [cytotoxic, full curve, poor fit]",
CN[C@@H]1CN(c2ccc3c(=O)c(C(=O)O)cn(-c4nccs4)c3n2)C[C@@H]1OC,active: 407 nM,"inconclusive: 18.2 µM [cytotoxic, single point]","inconclusive: 16.2 µM [cytotoxic, single point]","inconclusive: 14.4 µM [cytotoxic, single point]",active: 14.4 µM,active: 8.12 µM,active: 6.45 µM,,"inconclusive: 3.58 µM [cytotoxic, full curve, poor fit]",active: 6.45 µM,,,,
CC#C[C@]1(O)CC[C@H]2[C@@H]3CCC4=CC(=O)CCC4=C3[C@@H](c3ccc(N(C)C)cc3)C[C@@]21C,"inconclusive: 15 µM [cytotoxic, partial curve, poor fit] and active: 18.6 µM",active: 6.62 µM,active: 7.43 µM,active: 8.33 µM,active: 9.35 µM,"inconclusive: 9.35 µM [cytotoxic, full curve]","inconclusive: 14.8 µM [cytotoxic, partial curve]","inconclusive: 29.1 µM [cytotoxic, single point] and inconclusive: 28.2 µM [cytotoxic, single point]",,"inconclusive: 29.6 µM [cytotoxic, single point]","inconclusive: 20.9 µM [cytotoxic, partial curve, poor fit]",,"inconclusive: 13.2 µM [cytotoxic, partial curve]",
FC(F)c1nc2ccccc2n1-c1nc(N2CCOCC2)nc(N2CCOCC2)n1,"inconclusive: 1.46 µM [cytotoxic, full curve] and active: 186 nM","inconclusive: 0.166 µM [cytotoxic, full curve]","inconclusive: 0.187 µM [cytotoxic, full curve]",active: 0.0148 µM,"inconclusive: 4.18 µM [cytotoxic, partial curve]","inconclusive: 0.296 µM [cytotoxic, full curve]","inconclusive: 0.0935 µM [cytotoxic, full curve]","inconclusive: 0.708 µM [cytotoxic, full curve]",,"inconclusive: 0.59 µM [cytotoxic, partial curve]",,,"inconclusive: 7.43 µM [cytotoxic, partial curve]",
CNCC[C@H](Oc1cccc2ccccc12)c1cccs1,active: 18800 nM,"inconclusive: 11.8 µM [cytotoxic, full curve]","inconclusive: 11.8 µM [cytotoxic, full curve]","inconclusive: 8.33 µM [cytotoxic, full curve]","inconclusive: 29.6 µM [cytotoxic, single point]","inconclusive: 26.4 µM [cytotoxic, single point]","inconclusive: 37.2 µM [cytotoxic, partial curve, poor fit]","inconclusive: 20.6 µM [cytotoxic, single point]",active: 18.4 µM,"inconclusive: 18.7 µM [cytotoxic, partial curve]","inconclusive: 20.9 µM [cytotoxic, partial curve]",,"inconclusive: 29.6 µM [cytotoxic, single point]",
Nc1nc(N)c2nc(CNc3ccc(C(=O)NC(CCC(=O)O)C(=O)O)cc3)cnc2n1 (stereo unspecified),"inconclusive: 13.2 nM [cytotoxic, full curve]",inactive,"inconclusive: 0.0526 µM [cytotoxic, full curve]","inconclusive: 0.0833 µM [cytotoxic, full curve]","inconclusive: 0.0526 µM [cytotoxic, full curve]","inconclusive: 0.0833 µM [cytotoxic, full curve]","inconclusive: 0.059 µM [cytotoxic, full curve]","inconclusive: 0.141 µM [cytotoxic, full curve, poor fit]","inconclusive: 0.0891 µM [cytotoxic, full curve, poor fit]","inconclusive: 0.0469 µM [cytotoxic, full curve]","inconclusive: 0.0372 µM [cytotoxic, full curve]",,,
O=C(O)CCCCC(CCSCc1ccccc1)SCc1ccccc1 (stereo unspecified),"inconclusive: 14800 nM [cytotoxic, partial curve]","inconclusive: 23.5 µM [cytotoxic, partial curve]","inconclusive: 20.9 µM [cytotoxic, partial curve]","inconclusive: 18.7 µM [cytotoxic, partial curve]",active: 14.8 µM,"inconclusive: 20.9 µM [cytotoxic, partial curve]","inconclusive: 26.4 µM [cytotoxic, single point]",,"inconclusive: 35.5 µM [cytotoxic, single point]",inactive,,,inactive,
CN(C)CCN(C)C(=O)c1ccc(NC(=O)Nc2ccc(-c3nc(N4CCOCC4)c4ccn(CC(F)(F)F)c4n3)cc2)cc1,"inconclusive: 26.3 nM [cytotoxic, full curve, poor fit]",active: 0.132 µM,"inconclusive: 0.0526 µM [cytotoxic, full curve]","inconclusive: 0.0264 µM [cytotoxic, full curve]","inconclusive: 0.105 µM [cytotoxic, full curve, poor fit]","inconclusive: 0.0662 µM [cytotoxic, full curve]","inconclusive: 0.0526 µM [cytotoxic, full curve]",,active: 3.16 µM,"inconclusive: 0.0833 µM [cytotoxic, full curve]",,,"inconclusive: 0.0662 µM [cytotoxic, full curve]",
CCn1cc(C(=O)O)c(=O)c2cc(F)c(N3CCN(C)CC3)cc21,"inactive and inconclusive: 8.33 µM [cytotoxic, partial curve, poor fit]","inconclusive: 11.8 µM [cytotoxic, partial curve]","inconclusive: 0.166 µM [cytotoxic, full curve]","inconclusive: 0.0047 µM [cytotoxic, full curve, poor fit]",,,,,,,,,,
Cc1ccc(Nc2nccc(N(C)c3ccc4c(C)n(C)nc4c3)n2)cc1S(N)(=O)=O,"inconclusive: 3.35 µM [cytotoxic, full curve] and inconclusive: 1.03 µM [cytotoxic, full curve] and active: 742 nM","inconclusive: 33.2 µM [cytotoxic, single point]","inconclusive: 20.9 µM [cytotoxic, single point]","inconclusive: 26.4 µM [cytotoxic, single point]","inconclusive: 23.5 µM [cytotoxic, partial curve]","inconclusive: 20.9 µM [cytotoxic, partial curve]","inconclusive: 16.6 µM [cytotoxic, partial curve]","inconclusive: 18.4 µM [cytotoxic, partial curve]",,active: 16.6 µM,,,active: 14.8 µM,inactive: -20.1%
